Assay results from PubChem BioAssay AID1768 (National Center for Advancing Translational Sciences (NCATS), 2009).
In all, about 270,000 compounds went through this assay and about 620 (0.23%) were called active. This list was built around the results that the source calls inconclusive (neither active nor inactive); the mix of calls is not that of the screen. Calls come from the whole dose curve; as a rule, active = well fitted inhibition curve with a large enough effect in the polarisation, with a control signal flat (not every such curve was filed as active); inconclusive = small, poorly fitted or top-dose-only effect, or effect the other way, or a change in a side signal; inactive = no such curve, though single readings can be large or run the other way; the % refers to the polarisation. Potencies of inconclusive entries are doubtful fits and often do not repeat. A note “side channel” means that the fit belongs to a control or component signal, not to the main read-out.

These molecules were tested against Menin (Homo sapiens) (UniProt O00255) (assay: qHTS Assay for Inhibitors Targeting the Menin-MLL Interaction in MLL Related Leukemias: Competition With Texas Red Labeled MLL-derived Mutant Peptide). Conditions: fluorescence polarization; FP activity change, negative = inhibition: at 61.6 µM (top of the series).
Chain of UniProt O00255 (O00255 whole entry, looked up): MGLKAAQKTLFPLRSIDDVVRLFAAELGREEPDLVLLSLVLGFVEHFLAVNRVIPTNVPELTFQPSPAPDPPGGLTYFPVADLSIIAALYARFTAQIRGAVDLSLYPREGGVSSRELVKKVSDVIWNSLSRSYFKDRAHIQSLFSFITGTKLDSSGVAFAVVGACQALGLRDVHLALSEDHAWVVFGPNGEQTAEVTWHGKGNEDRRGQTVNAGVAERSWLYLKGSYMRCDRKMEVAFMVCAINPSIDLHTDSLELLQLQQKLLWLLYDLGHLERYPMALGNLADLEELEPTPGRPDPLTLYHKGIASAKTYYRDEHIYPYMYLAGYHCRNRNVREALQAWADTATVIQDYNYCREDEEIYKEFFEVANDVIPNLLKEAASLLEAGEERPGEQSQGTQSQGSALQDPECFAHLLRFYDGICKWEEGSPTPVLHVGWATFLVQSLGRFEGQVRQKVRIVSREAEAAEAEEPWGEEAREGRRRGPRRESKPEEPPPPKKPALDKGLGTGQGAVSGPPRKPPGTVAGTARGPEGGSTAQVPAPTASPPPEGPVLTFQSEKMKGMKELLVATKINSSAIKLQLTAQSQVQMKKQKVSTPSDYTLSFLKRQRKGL
Potency is the fitted concentration of half-maximal effect; tags give direction and shape of the fitted curve or compound fluorescence and quenching.
Throughout, for FP activity change, negative = inhibition: % of control where 0% means no effect.

Row | Compound | Potency | FP activity change, negative = inhibition
1 | O=c1c(O)c(Br)ccc2c(Br)c(O)c(O)c(O)c12 | inconclusive: 17.8 µM [quencher, side channel, partial curve] | 
2 | OC(CNCCc1ccc(C(F)(F)F)cc1)COc1cccc2ccccc12 (stereo not drawn) |  | inactive: 1.35%
3 | COc1ccc(C(=O)Nc2ccncc2)cc1OC | inconclusive: 39.8 µM [inhibitor, single point] | 
4 | COc1ccc2ccccc2c1/C=N/NC(=O)c1cccc(Br)c1 | inconclusive: 39.8 µM [inhibitor, single point] | 
5 | O=C(O)CN1C(c2ccccc2O)Nc2ccc(Br)cc2C1c1ccccc1 (stereo not drawn) | inconclusive: 31.6 µM [quencher, side channel, partial curve] | 
6 | Nc1nc(-c2ccccc2)c(N=Nc2ccc(Cl)cc2)s1 | inconclusive: 12.6 µM [quencher, side channel, partial curve] | 
7 | COC(=O)Cn1c(=NC(=O)c2ccc([N+](=O)[O-])s2)sc2cc(Br)ccc21 | inconclusive: 2.24 µM [quencher, side channel, full curve] | 
8 | O=c1[nH]c(N/N=C\c2ccc3c(c2)OCO3)nc2ccccc12 |  | inactive: 9.77%
9 | N=c1c2c(-c3ccccc3)c(-c3ccccc3)n(Cc3ccco3)c2ncn1CCN1CCOCC1 | inconclusive: 12.6 µM [fluorescent, side channel, partial curve] | 
10 | COc1cccc2sc3ccc(C#Cc4ccc(N)cc4)cc3c(=O)c12 | inconclusive: 8.91 µM [quencher, side channel, partial curve] | 
11 | O=C(O)c1cc(C(=O)O)cc(-c2ccc(/C=c3/sc4nc5ccccc5n4c3=O)o2)c1 | inconclusive: 14.1 µM [quencher, partial curve] | 
12 | c1ccc(-n2cnc3cc(NCc4ccncc4)ccc32)cc1 | inconclusive: 35.5 µM [inhibitor, single point] | 
13 | Cc1cc(C=C2C(=O)c3ccccc3C2=O)c(C)n1-c1ccc(C(=O)O)cc1 | inconclusive: 14.1 µM [quencher, side channel, partial curve] | 
14 | Cc1cccc(-c2cc3nc(C)cc(NCCCN(C)C)n3n2)c1 |  | inactive: -15.4%
15 | CCN(CC)C(=O)c1cn(-c2ccccc2)nc1-c1ccc2c(c1)OCCO2 | inconclusive: 1.58 µM [fluorescent, side channel, full curve, poor fit] | 
16 | N=C1SC(c2ccccc2)C(=O)N1c1ncc(Cc2ccccc2)s1 (stereo not drawn) | inconclusive: 25.1 µM [inhibitor, single point] | 
17 | c1ccc2c(Nc3ccncc3)nc(-c3ccc4c(c3)OCO4)nc2c1 | inconclusive: 10 µM [quencher, side channel, partial curve] | 
18 | Cc1ccc(C)c(OCC(=O)Nc2nc3ccc([N+](=O)[O-])cc3s2)c1 | inconclusive: 22.4 µM [quencher, side channel, single point] | 
19 | C[C@@H](C(=O)NCC1CC1)[C@H]1C[C@]1(C)[C@H](NC(=O)OCc1ccccc1)c1ccccc1 | inconclusive: 3.16 µM [inhibitor, partial curve] | 

Row | Compound | Potency | FP activity change, negative = inhibition
20 | Cc1c2cc(O)c(=O)cc-2oc2cc(O)c(O)cc12 | inconclusive: 39.8 µM [fluorescent, side channel, single point] | 
21 | CCN(c1ccc(NC(=O)COC(=O)c2ccc(C)c(S(=O)(=O)N3CCOCC3)c2)cc1)C(C)C | inconclusive: 10 µM [quencher, side channel, partial curve] | 
22 | COc1ccc(NC(=O)CSc2nnc(NC(=O)C3CCC3)s2)c(OC)c1 | inconclusive: 35.5 µM [fluorescent, side channel, single point] | 
23 | CCOC(=O)CC(NC(=O)c1cccc2c1C(=O)N(Cc1cccnc1)C2)c1ccc(OC(C)C)cc1 (stereo not drawn) | inconclusive: 10 µM [fluorescent, side channel, partial curve] | 
24 | Nc1nc(CN2CCCCCC2)nc(Nc2ccc(F)cc2)n1 |  | inactive: 1.23%
25 | COc1cccc(/C=C2\C(=O)C(=O)c3ccccc32)c1 | inconclusive: 17.8 µM [quencher, side channel, single point] | 
26 | CC1CCN(c2ccc(NC(=O)Cc3ccccc3)cc2)CC1 |  | inactive: 6.32%
27 | Cc1ccc(Cn2cnc3c(cnn3-c3ccc(F)cc3)c2=O)cc1 | inconclusive: 17.8 µM [inhibitor, partial curve] | 
28 | O=C(CCCCCNC(=O)c1ccccc1)N/N=C/c1ccc(O)cc1O |  | inactive: -8.87%
29 | CC(OC(=O)c1nn(C(C)C)c(=O)c2ccccc12)C(=O)Nc1ncc(Cl)cc1Cl (stereo not drawn) |  | inactive: -7.73%
30 | O=C(N/N=C/c1cccc(O)c1)c1cc(-c2ccccc2)nc2ccccc12 | inconclusive: 25.1 µM [quencher, side channel, partial curve] | 
31 | CN(C)S(=O)(=O)c1cccc(NC(=O)COC(=O)c2cc(-c3cccc(Br)c3)nc3ccccc23)c1 | inconclusive: 2.82 µM [quencher, side channel, single point] | 
32 | O=C(O)c1ccc2c(c1)C(=O)N(c1ccc(/C=C/C(=O)c3ccccc3)cc1)C2=O | inconclusive: 10 µM [quencher, side channel, partial curve] | 
33 | CCCCC[C@H](O)/C=C/[C@H]1OC(O)C[C@H](O)[C@@H]1C/C=C\CCCC(=O)O (stereo partly drawn) | inconclusive: 39.8 µM [inhibitor, single point] | 
34 | O=C(NCc1ccccc1)C(c1cccnc1)N(C(=O)c1ccccn1)c1cccc(F)c1 (stereo not drawn) | inconclusive: 3.55 µM [inhibitor, partial curve] | 
35 | Fc1ccccc1COc1ccc(Br)cc1CNCC1CCCO1 (stereo not drawn) | inconclusive: 20 µM [fluorescent, side channel, single point] | 
36 | COC(=O)C1C(O)=C(C=Nc2ccc(N)cc2)C(=O)CC1(C)C (stereo not drawn) | inconclusive: 22.4 µM [inhibitor, single point] | 
37 | COCCNC(=O)CNC(=O)c1nn(-c2ccc(OC)c(Cl)c2)c(=O)c2ccccc12 | inconclusive: 44.7 µM [inhibitor, partial curve, poor fit] | 
38 | Fc1cccc(/C=N/Nc2nc3ccccc3[nH]2)c1 | inconclusive: 31.6 µM [quencher, side channel, single point] | 
